Test results as given in the supplement of paper PMC10441789.
The other results are listed elsewhere or left out. Antibody binding of pooled human sera (four to six donors per pool; dilution not stated) to peptides of the Trypanosoma cruzi antigen TSSA on microarrays. Quantile-normalised fluorescence in arbitrary units, mean of duplicate arrays; higher = more binding. No active / inactive call. The uninfected pools are read here as the healthy donors of the same country. The strongest signals lie near the top of the scale (about 60,000).

Tests used:
Assay in all cases: antibody binding signal (normalised fluorescence) (arbitrary fluorescence units); higher = stronger serum antibody binding to peptide
[1] = test system: pooled sera of chronic Chagas disease patients, Argentina
Method: (§1)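 Microarray of 15-residue peptides over residues 30-55 of Trypanosoma cruzi TSSAII, each with 1 to 10 substitutions at naturally variable positions, probed with one serum pool per country.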

[2] = test system: pooled sera of chronic Chagas disease patients, Bolivia
Method: as §1

[3] = test system: pooled sera of chronic Chagas disease patients, Brazil
Method: as §1

[4] = test system: pooled sera of chronic Chagas disease patients, Colombia
Method: as §1

[5] = test system: pooled sera of chronic Chagas disease patients, Mexico
Method: as §1

[6] = test system: pooled sera of chronic Chagas disease patients, USA
Method: as §1

[7] = test system: pooled sera of uninfected people, Argentina
Method: as §1

[8] = test system: pooled sera of uninfected people, Bolivia
Method: as §1

[9] = test system: pooled sera of uninfected people, Brazil
Method: as §1

[10] = test system: pooled sera of uninfected people, Colombia
Method: as §1

[11] = test system: pooled sera of uninfected people, Mexico
Method: as §1

[12] = test system: pooled sera of uninfected people, USA
Method: as §1

Sequence	antibody binding signal [1]	antibody binding signal [2]	antibody binding signal [3]	antibody binding signal [4]	antibody binding signal [5]	antibody binding signal [6]	antibody binding signal [7]	antibody binding signal [8]	antibody binding signal [9]	antibody binding signal [10]	antibody binding signal [11]	antibody binding signal [12]
PPSGKENKTATGEAP	22000	24300	14100	1110	1760	21500	1810	1570	382	1060	387	292
PSGKDNKAAAGGAPS	3400	445	3930	7560	7190	3910	270	166	106	134	81.8	111
PSGTENKTATGGAPS	47900	24400	43600	2420	3800	9670	1370	611	430	431	772	473
SGTDKKPAAGEAPSP	829	3890	27800	8250	835	14400	121	141	159	301	2340	134
KDNKTAAGGAPSPSG	557	237	251	3330	387	377	306	120	160	189	97.8	142
PSGKDKKTAAGGTPS	2580	466	2100	8750	4880	4480	123	285	265	131	121	104
PSGTDNKPATGGTPS	38000	22800	46300	4920	925	7370	320	1120	1230	546	617	284
GKEKKAATGETPSQS	13400	1070	8530	7340	9730	10500	342	117	97.5	215	107	109
KENKAATGGAPSPSG	322	224	1040	216	256	1610	239	103	173	96.2	83.1	221
TDKKPATGEAPSPSG	44500	50200	45800	383	190	42400	868	646	387	238	245	150
ENKAATGEAPSQSGA	28800	43900	36700	200	147	34200	234	146	170	139	149	114
EKKTAAGETPSPSGA	892	282	345	624	484	4520	178	1100	131	503	217	1400
KEKKAATGEAPSPSG	12000	6750	15100	138	178	16300	353	75	110	174	85.2	103
DKKAAAGGTPSQPGA	393	220	432	4870	357	1450	304	100	2240	189	317	157
SGKEKKAAAGETPSP	3950	596	4940	2990	6590	6520	207	158	98.3	113	80	211
PPSGKDNKAAAGGAP	1040	295	2030	1310	3430	2590	409	619	163	302	113	227
PPSGTENKPAAGGTP	54800	44400	51200	914	11400	21500	2970	2890	1920	1230	500	1190
KEKKTAAGEAPSPPG	150	208	238	330	219	3470	134	105	89.9	538	85.6	112
TEKKTAAGGAPSQSG	764	1540	269	9550	869	1330	195	182	241	183	836	276
KENKPATGGTPSPPG	374	379	1370	188	729	381	334	416	180	150	141	163
DKKAATGGAPSPSGA	775	320	353	2300	948	1230	411	783	166	635	125	137
SGTDNKAATGGAPSP	1350	412	44300	1110	474	1620	354	631	1580	227	216	261
PSGTDNKTATGGAPS	14800	10200	44000	923	961	1080	343	683	1530	376	299	257
TDKKAATGGAPSQSG	1780	243	928	888	1570	1480	320	458	154	862	209	141
GTEKKTAAGETPSQP	394	1930	23800	451	644	2820	105	671	193	677	159	127

Sequence	antibody binding signal [1]	antibody binding signal [2]	antibody binding signal [3]	antibody binding signal [4]	antibody binding signal [5]	antibody binding signal [6]	antibody binding signal [7]	antibody binding signal [8]	antibody binding signal [9]	antibody binding signal [10]	antibody binding signal [11]	antibody binding signal [12]
KKPATGEAPSPPGAS	21100	17700	40200	169	245	31900	930	890	171	234	88.7	594
PPSGTDNKAATGEAP	38200	37100	45300	1030	1140	25700	553	587	763	219	182	260
DNKTATGGAPSPPGA	491	407	547	554	288	724	348	231	382	217	306	198
KEKKPATGEAPSPPG	39300	10400	41300	157	216	29200	804	177	150	145	101	388
KKAATGGTPSPPGAS	302	547	232	851	216	559	308	205	692	468	87.4	429
KDNKTATGGTPSPPG	427	301	274	1810	333	494	298	159	197	223	113	135
NKPATGGAPSPSGAS	808	2630	8710	403	577	2190	699	1690	440	343	264	1240
TEKKTATGGAPSQPG	1840	273	1730	4020	1250	1680	339	295	175	133	353	215
GTDNKPATGETPSQP	36800	32400	46200	1430	407	28300	275	791	670	129	1990	188
TEKKTATGETPSPSG	656	724	1030	421	399	8080	374	241	379	154	361	2480
SGKENKTAAGGAPSP	2920	515	18400	10600	4330	20700	6050	986	159	305	408	212
PPSGTENKTAAGETP	40700	39300	44200	269	2630	11300	1490	469	259	385	368	449
PPSGKDNKPAAGETP	960	5000	23100	715	6860	12600	472	716	265	288	338	223
KENKPAAGGTPSPSG	201	230	351	986	360	309	208	282	343	201	110	168
PPSGTDNKTAAGGAP	34400	28300	38900	2300	3090	3640	1010	919	1310	732	281	708
TDNKAATGEAPSPSG	25700	36500	32700	74.8	136	29000	166	276	202	115	106	117
KDNKAAAGGAPSPPG	191	243	240	1480	166	613	472	2460	160	204	76.3	171
ISTPPSGKDNKPATG	15500	4360	25700	672	19700	12200	372	1720	172	193	163	221
ISTPPSGKEKKTAAG	12400	210	344	967	8400	727	292	248	92.3	199	101	199
PPSGTEKKTAAGETP	18600	8540	14000	580	1340	2470	636	387	326	485	238	209
GTDKKTATGETPSQP	734	1740	29300	1390	578	7330	336	272	336	105	262	127
GKENKTAAGETPSPP	3540	817	8270	6640	6090	13700	491	210	126	145	214	394
ENKPATGGAPSPSGA	1380	19400	5790	454	1050	3540	521	1080	478	190	245	281
GTDNKPAAGETPSQS	2850	510	44400	1430	331	3480	133	581	446	213	424	109
PPSGTDNKPAAGGAP	43800	39800	47200	7040	4870	14500	1220	1260	1350	994	854	826
